Reference: the supplement of paper PMC3334620
The full ranking holds about 33,000 sequences; the median of “E-score (-0.5 to 0.5)” is about -0.017, and the highest 2% start at about 0.3. Some of the results follow.

Target: T1, Sut1 (UniProt P53032)
T1 sequence: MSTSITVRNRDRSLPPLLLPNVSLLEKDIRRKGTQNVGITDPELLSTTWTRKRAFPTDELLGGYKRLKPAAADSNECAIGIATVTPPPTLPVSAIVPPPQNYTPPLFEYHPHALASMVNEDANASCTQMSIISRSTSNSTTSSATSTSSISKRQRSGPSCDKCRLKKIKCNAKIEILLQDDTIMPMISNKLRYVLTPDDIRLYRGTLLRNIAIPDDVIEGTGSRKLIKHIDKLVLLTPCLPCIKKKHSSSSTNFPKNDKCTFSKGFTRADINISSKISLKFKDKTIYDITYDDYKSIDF
Test: PBM E-score (8-mer binding enrichment) (E-score (-0.5 to 0.5)); higher = stronger / more preferred TF binding; most listed sequences are background and not binding sites
Conditions: protein concentration: 200 nM; construct: GST-full length
Outline: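 Yeast transcription factors, full-length or as DNA-binding domains, were expressed with a GST tag using PURExpress in vitro transcription/translation. At about 100-200 nM they were applied to universal all-10-mer Agilent arrays, double-stranded by primer extension on fresh or once-stripped slides. Fluorescent anti-GST detected bound protein, and masliner normalised the scans. E-scores for ungapped eight-base words, pooled with reverse complements, came from the Universal PBM Analysis Suite.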

| Sequence | PBM E-score |
| --- | --- |
| TATAAGCA | 0.0991 |
| AAGCACTG | 0.112 |
| GTAGTTCA | 0.0978 |
| CAAGGCAC | -0.175 |
| CTGTGGAC | -0.172 |
| CCCCGGGC | 0.087 |
| TAATGTGA | 0.228 |
| ATGGAGCC | -0.156 |
| AGAAGTTG | -0.0573 |
| AGTGGGGG | -0.35 |
| CAATCCTC | 0.0534 |
| AATATGCT | 0.176 |
| ACGAATCA | 0.17 |
| CGGCCATC | -0.0876 |
| TGACGCAA | -0.167 |
| AACTGCAT | 0.00562 |
| AATACTGT | 0.136 |
| AACCTGAT | 0.108 |
| CACCGGCG | 0.117 |
| GGCAGAGA | -0.0763 |
| AATATAAG | 0.218 |
| CCAGCTTA | -0.158 |
| ACAACCCT | -0.0789 |
| ATTTGAAA | 0.268 |
| GGATCGAC | -0.0516 |

| Sequence | PBM E-score |
| --- | --- |
| ACCGTACG | -0.169 |
| CCAAAGGA | -0.0234 |
| ACATCAAA | 0.126 |
| ATCCGGAT | 0.257 |
| AGAGATGC | -0.257 |
| ATGTCCAG | -0.171 |
| AGAATTTC | 0.0821 |
| ATCCGGTA | 0.135 |
| GCTTATCC | -0.00262 |
| CAATTCGA | 0.0472 |
| ATGTACAG | -0.0843 |
| CGACGTAG | -0.228 |
| CCAGGTAG | -0.0982 |
| CAGTCCAC | -0.114 |
| CTTCAAAG | 0.0688 |
| ATCAGGAT | 0.095 |
| ACCCTAGA | -0.173 |
| CAGTTTTA | 0.0952 |
| ACTAAAGA | 0.145 |
| AGTTACCC | -0.0204 |
| GACGCTGC | -0.109 |
| GCCAATGA | -0.223 |
| CTTACCGC | -0.0412 |
| AGACGCAG | -0.0594 |
| CGTGAGGA | -0.0289 |

| Sequence | PBM E-score |
| --- | --- |
| ACTCAACA | 0.155 |
| GGACCGCA | 0.0561 |
| CTACCAAC | 0.0725 |
| CTCAGAAC | 0.0425 |
| AGTCCTTA | 0.0102 |
| CCGTTAAA | 0.215 |
| CACAGCCG | -0.234 |
| AACATCGA | 0.00177 |
| ATCACAAA | 0.0833 |
| GCCAGGGA | -0.291 |
| GGGGTAAC | -0.0954 |
| CGGTTCAA | 0.0598 |
| AGCGTGGA | -0.232 |
| ACAGGCTC | -0.095 |
| ATTGCTAG | -0.0606 |
| GGAGCTCA | 0.0463 |
| CGTGTTAA | -0.0435 |
| GGCACACA | -0.0936 |
| CATCCGAG | -0.0553 |
| CGTGCCAC | -0.241 |
| GCTTTCAA | 0.0924 |
| GAGTCTAA | 0.171 |
| CGGCTACG | -0.194 |
| ACAAAGGG | -0.144 |
| CGACAGAA | -0.0552 |

| Sequence | PBM E-score |
| --- | --- |
| ATGTTTAA | 0.104 |
| AGAGAACG | 0.0677 |
| AGAAGTCA | 0.0573 |
| AGGCGCGC | -0.00675 |
| CTCCTGCA | -0.178 |
| ATACTGTC | 0.103 |
| AAGGGTTA | -0.019 |
| CCGTCGAG | 0.0557 |
| GCGCCCCC | -0.34 |
| ATTTTGCG | 0.193 |
| AAATAATT | 0.338 |
| ACGGGGGG | -0.348 |
| AATATTCC | 0.276 |
| AATGAACC | 0.0466 |
| ACCACCGT | -0.0843 |
| CGGCGCAC | -0.0137 |
| CCGAATGA | 0.224 |
| AGCCTCAC | -0.0672 |
| AGTAAAAA | 0.148 |
| GCTCTGTA | -0.116 |
| ATCTCCTC | -0.0263 |
| CTACGCTC | -0.0781 |
| AGTAGGGA | -0.205 |
| CGTACGAG | -0.098 |
| CGTTTGAA | 0.233 |

| Sequence | PBM E-score |
| --- | --- |
| CTATGAAG | 0.0482 |
| AAGGTGGC | -0.138 |
| GCGTGAAC | -0.0671 |
| ATGCGCAT | 0.295 |
| ATCGGGCG | -0.174 |
| AATAGTAC | 0.197 |
| CGATGAGC | -0.0442 |
| CCGCAATA | 0.156 |
| CAACAAAG | 0.0963 |
| ACCCGGCA | -0.141 |
| GACGCCGC | -0.221 |
| GATACGAA | -0.00618 |
| ACAGTACG | 0.0517 |
| CAAATCGA | -0.198 |
| ATACGTTC | -0.101 |
| ACTCTATC | 0.112 |
| GGTGCTTA | -0.0924 |
| ATGATAAG | 0.153 |
| AATAAGGT | 0.0865 |
| ACAAGCGT | -0.0414 |
| ATCTAGGA | 0.084 |
| CAAACAGA | 0.0632 |
| ATTCCGCC | 0.214 |
| CGGCTCCA | -0.0412 |
| ACCAATTC | 0.0773 |

| Sequence | PBM E-score |
| --- | --- |
| CCAGTGCG | -0.161 |
| CATGTTGC | -0.125 |
| ATCTTTAG | 0.0694 |
| ACAGCGAT | -0.0437 |
| CGATGACC | -0.0493 |
| CGTCCTGC | -0.307 |
| CCGATGAC | 0.0296 |
| AGTCGCGC | 0.101 |
| CCACTCGG | 0.0102 |
| TATACGCA | 0.0114 |
| CTGATGCA | -0.115 |
| ATGAATCC | 0.025 |
| GCATTCCA | -0.198 |
| AAAACTAA | 0.353 |
| ATGGTGAA | 0.0181 |
| CGCGAAAC | -0.0638 |
| CGTACGTA | 0.0321 |
| AGCGCAGA | -0.177 |
| AATATCGA | 0.0619 |
| CGCATCCC | -0.321 |
| CTCATATA | 0.143 |
| GTTAAGTA | 0.144 |
| AAACTATT | 0.24 |
| GATCCGGC | 0.0532 |
| CGCCGGTA | -0.158 |

| Sequence | PBM E-score |
| --- | --- |
| ACGGGCCT | -0.203 |
| CACGGGAG | -0.185 |
| CAGCCGAA | -0.0991 |
| ACAAACGC | -0.0721 |
| CAATAGGA | -0.00026 |
| CGAACCCG | -0.0423 |
| ACGCCGAA | 0.087 |
| CATCAATA | 0.186 |
| CGAAACCA | 0.0133 |
| ACCGATAT | 0.151 |
| AACATTAC | 0.172 |
| CCATTCGG | 0.00649 |
| AAGAGACT | -0.0192 |
| AACAACAC | 0.173 |
| AGATATCT | -0.0624 |
| CTCGGTAA | 0.186 |
| ACTAGGGA | -0.167 |
| ACTACCAT | 0.197 |
| AGATGGGC | 0.0254 |
| TAGTAATA | 0.19 |
| AAGCTTAT | 0.0714 |
| CACGAATA | 0.159 |
